Test results from the supplement of paper PMC8948288.
The sequences are guide strands of siRNAs; only the seed at positions 2 to 7 varies.

What was measured:
[1] = tested on: GL261; test: cell viability relative to siNT1 (ATP content); H4 human neuroglioma and GL261 mouse glioma; higher = less toxic; conditions: siRNA concentration 25 nM; 96 h; mouse
Procedure: (§1)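 Arrayed screen of all 4096 6mer seeds. Each seed sits at guide-strand positions 2-7 of a neutral 19mer siRNA backbone (siNT1-based, passenger strand 2'-O-methyl modified at positions 1-2 to block RISC loading, 3' DNA overhangs). The guide strand is built here as U + seed + ACAUGUAAACCA. Cells were reverse transfected in triplicate in 384-well plates (H4 at 10 nM, GL261 at 25 nM) with Lipofectamine RNAiMAX. Viability was read as ATP content (CellTiter-Glo) 96 h after transfection and normalised to siNT1 (%).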

[2] = tested on: H4; test: as above; conditions: siRNA concentration 10 nM; 96 h; human
Procedure: as §1
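Further: cells reverse transfected with siRNA duplexes via lipid reagent, ATP read by luminescence, triplicate wells, values scaled to mean viability with non-targeting control siNT1.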

| Sequence | cell viability [1] [%] | cell viability [2] [%] |
| --- | --- | --- |
| UACUCGAACAUGUAAACCA | 72.1 | 89.7 |
| UACUCGCACAUGUAAACCA | 25.6 | 59 |
| UACUCGGACAUGUAAACCA | 47 | 83.9 |
| UACUCGUACAUGUAAACCA | 43.4 | 77.8 |
| UACUCUAACAUGUAAACCA | 71.1 | 87.6 |
| UACUCUCACAUGUAAACCA | 38.4 | 52.7 |
| UACUCUGACAUGUAAACCA | 58.4 | 81.5 |
| UACUCUUACAUGUAAACCA | 60.3 | 80.2 |
| UACUGAAACAUGUAAACCA | 67.8 | 80.6 |
| UACUGACACAUGUAAACCA | 26.4 | 57.5 |
| UACUGAGACAUGUAAACCA | 63.1 | 106 |
| UACUGAUACAUGUAAACCA | 58.3 | 68.3 |
| UACUGCAACAUGUAAACCA | 53.3 | 108 |
| UACUGCCACAUGUAAACCA | 18.7 | 48.4 |
| UACUGCGACAUGUAAACCA | 65.2 | 98.7 |
| UACUGCUACAUGUAAACCA | 36.3 | 52 |
| UACUGGAACAUGUAAACCA | 69.1 | 92.4 |
| UACUGGCACAUGUAAACCA | 32.6 | 24.4 |
| UACUGGGACAUGUAAACCA | 48 | 39.2 |
| UACUGGUACAUGUAAACCA | 69.7 | 65.1 |
| UACUGUAACAUGUAAACCA | 65.7 | 89.7 |
| UACUGUCACAUGUAAACCA | 62.7 | 55.6 |

| Sequence | cell viability [1] [%] | cell viability [2] [%] |
| --- | --- | --- |
| UACUGUGACAUGUAAACCA | 59.8 | 80.4 |
| UACUGUUACAUGUAAACCA | 51 | 104 |
| UACUUAAACAUGUAAACCA | 66.3 | 111 |
| UACUUACACAUGUAAACCA | 55.2 | 66.8 |
| UACUUAGACAUGUAAACCA | 69.6 | 115 |
| UACUUAUACAUGUAAACCA | 53.7 | 59 |
| UACUUCAACAUGUAAACCA | 62.3 | 85 |
| UACUUCCACAUGUAAACCA | 31.3 | 43 |
| UACUUCGACAUGUAAACCA | 61 | 92.2 |
| UACUUCUACAUGUAAACCA | 33.1 | 70.5 |
| UACUUGAACAUGUAAACCA | 52.7 | 75.9 |
| UACUUGCACAUGUAAACCA | 20.4 | 29.4 |
| UACUUGGACAUGUAAACCA | 25.1 | 75 |
| UACUUGUACAUGUAAACCA | 9.25 | 106 |
| UACUUUAACAUGUAAACCA | 67.6 | 84.8 |
| UACUUUCACAUGUAAACCA | 45.4 | 62.3 |
| UACUUUGACAUGUAAACCA | 67.2 | 80.9 |
| UACUUUUACAUGUAAACCA | 56.6 | 88.5 |
| UAGAAAAACAUGUAAACCA | 43.3 | 103 |
| UAGAAACACAUGUAAACCA | 37.8 | 98.8 |
| UAGAAAGACAUGUAAACCA | 57.3 | 85.5 |
| UAGAAAUACAUGUAAACCA | 46.4 | 78.9 |

| Sequence | cell viability [1] [%] | cell viability [2] [%] |
| --- | --- | --- |
| UAGAACAACAUGUAAACCA | 46.7 | 78.5 |
| UAGAACCACAUGUAAACCA | 26.9 | 67.9 |
| UAGAACGACAUGUAAACCA | 52.4 | 81.7 |
| UAGAACUACAUGUAAACCA | 28.3 | 83.3 |
| UAGAAGAACAUGUAAACCA | 52.3 | 76.1 |
| UAGAAGCACAUGUAAACCA | 17.9 | 60.2 |
| UAGAAGGACAUGUAAACCA | 57.3 | 70.1 |
| UAGAAGUACAUGUAAACCA | 58.7 | 70.5 |
| UAGAAUAACAUGUAAACCA | 74 | 82.8 |
| UAGAAUCACAUGUAAACCA | 47.7 | 76.3 |
| UAGAAUGACAUGUAAACCA | 75 | 89 |
| UAGAAUUACAUGUAAACCA | 71.3 | 80.2 |
| UAGACAAACAUGUAAACCA | 49.1 | 84.2 |
| UAGACACACAUGUAAACCA | 39 | 61 |
| UAGACAGACAUGUAAACCA | 31.2 | 68.4 |
| UAGACAUACAUGUAAACCA | 60.9 | 79.2 |
| UAGACCAACAUGUAAACCA | 43.6 | 90.9 |
| UAGACCCACAUGUAAACCA | 12.4 | 78.7 |
| UAGACCGACAUGUAAACCA | 41.7 | 79.3 |
| UAGACCUACAUGUAAACCA | 33.4 | 103 |
| UAGACGAACAUGUAAACCA | 40.8 | 89.6 |
| UAGACGCACAUGUAAACCA | 37 | 68.9 |

| Sequence | cell viability [1] [%] | cell viability [2] [%] |
| --- | --- | --- |
| UAGACGGACAUGUAAACCA | 31.7 | 54.6 |
| UAGACGUACAUGUAAACCA | 35.7 | 118 |
| UAGACUAACAUGUAAACCA | 43.7 | 103 |
| UAGACUCACAUGUAAACCA | 20.2 | 87 |
| UAGACUGACAUGUAAACCA | 54.3 | 86.2 |
| UAGACUUACAUGUAAACCA | 36.1 | 81.8 |
| UAGAGAAACAUGUAAACCA | 48.9 | 91 |
| UAGAGACACAUGUAAACCA | 30.5 | 76.8 |
| UAGAGAGACAUGUAAACCA | 48.6 | 79.8 |
| UAGAGAUACAUGUAAACCA | 16.9 | 86.8 |
| UAGAGCAACAUGUAAACCA | 60.3 | 82.3 |
| UAGAGCCACAUGUAAACCA | 24.4 | 39.2 |
| UAGAGCGACAUGUAAACCA | 51.6 | 93 |
| UAGAGCUACAUGUAAACCA | 38.4 | 67.8 |
| UAGAGGAACAUGUAAACCA | 16.7 | 86.8 |
| UAGAGGCACAUGUAAACCA | 2.67 | 51.3 |
| UAGAGGGACAUGUAAACCA | 22.9 | 88.6 |
| UAGAGGUACAUGUAAACCA | 6.71 | 61.5 |
| UAGAGUAACAUGUAAACCA | 33 | 91.2 |
| UAGAGUCACAUGUAAACCA | 26.9 | 53.2 |
